# Assay results as given in US20210015897A1, “METHODS TO PRODUCE PEPTIDES, POLYPEPTIDES OR CELLS FOR MODULATING IMMUNITY” (IMNATE SARL, priority 2017, published 2021).
# System: NKT cells
# Assay: In vitro stimulation of NKT cells by peptide presented with dendritic cells
# Settings: peptide with CD8 cofactor complementary sequence in flanking residues
# Procedure: The flavivirus non-structural glycoprotein NS1 protein contains epitopes potentially presented by the CD1d molecule. In order to identify them, synthetic peptides covering the entire sequence of the protein are produced, with an overlap of 5 aminoacids. Such peptides are then added for an overnight incubation to human dendritic cells obtained by conversion of peripheral blood monocytes, as detailed in Example 5. Loaded dendritic cells are then incubated in the presence of CD3+ lymphocytes obtained from PBMCs (see Example 2). Cultures are carried out in the presence of antibodies towards class I and class II molecules so as to prevent activation of corresponding cells.
# After 3 to 4 stimulation cycles, the CD3+ T cells are recovered and analyzed in terms of phenotype and expression of the canonical transcription factor, PLZF. Cells are then further expanded and cloned.
# Peptide of SEQ ID NO: 21 is produced by synthesis with inclusion in its flanking residues of a complementary sequence for the CD8 co-factor and used in vitro to stimulate NKT cells by presentation with dendritic cells.
substance,measurement,value
SEQ ID NO: 21: Dengue NS1 CD1d epitope peptide with a complementary sequence for the CD8 co-factor in flanking residues (FIEVKSCHWSNTQQ; Flavivirus NS1 + CD8 motif),NKT cell phenotype,forces NKT towards a cytotoxic phenotype
same,fate of the dendritic cell with which a synapse has been formed,eliminates the dendritic cell
